# Test results: the supplement of paper PMC8728848
# Some of the results follow.
# B1: SP16664B-bot-474-25-474 (Bacteroides ovatus) (protein)
# chain: CEEDIEIGNKIDESSYLASTQLSGLLLDENTNKNSSVIELRNNEYSTNVVFRLSKLPQKGVDVQIAVEESYAAIYNTIHETDFEVFPAANVKIANNGTFVLAPDDKVTPSVKVTLTAFDGMEEDKTYIVPLTVTSSTEGVTFTETSKHMVLLVQDYRNKPNTNKGEDAVQTVLYFEVNDTNPLNALEFLTESGKYFFDHIVLFAANINWDPEKQRVYLANNENVQFLLDNNDKYLQPLRKAGMKIIISILGNHDEAGVAQLSDMGAREFARELAAYCRAYNLDGVAFDDEYSNSPDLSNPWLASPSAYAGSRLMYECKAVMPEKIVSLYNLGNMYSSSLQVIDGIEPGQYCDYAVADYGGAAGPGTGMTLKQCAGMSIELRRGSGNSSESTARSRKEAGYGYYMFFALDPSLYGSQVYRCQSVCKGLYDETLVYPSYYYKKNSTEREAIN
# What was measured:
# Assay in all cases: glycan array binding signal (z-score within array); higher = stronger binding
# Details in all cases: glycan notation: IUPAC condensed, linker removed
# [1] = target: Neu5Ac(a2-3)Gal
# How it was run: (§1)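 Negative Z-scores can be read as non-binding. The Z-score is calculated within each array and then averaged across arrays of one protein sequence at different concentrations or buffers and across linkers. Arrays, 3228 in all, were curated from the Consortium for Functional Glycomics database and kept only where the protein sequence was available.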
# [2] = target: Neu5Ac(a2-3)Gal(b1-3)GalNAc
# How it was run: as §1
# [3] = target: Neu5Ac(a2-3)Gal(b1-3)GalNAc(b1-3)Gal(a1-4)Gal(b1-4)Glc
# How it was run: as §1
# [4] = target: Neu5Ac(a2-3)Gal(b1-3)GalNAc(b1-4)[Neu5Ac(a2-3)]Gal(b1-4)Glc
# How it was run: as §1
# [5] = target: Neu5Ac(a2-3)Gal(b1-3)GalNAc(b1-4)[Neu5Ac(a2-8)Neu5Ac(a2-3)]Gal(b1-4)Glc
# How it was run: as §1
# [6] = target: Neu5Ac(a2-3)Gal(b1-3)GalNAc6S
# How it was run: as §1
# [7] = target: Neu5Ac(a2-3)Gal(b1-3)GlcNAc
# How it was run: as §1
# [8] = target: Neu5Ac(a2-3)Gal(b1-3)GlcNAc(b1-2)Man
# How it was run: as §1
# [9] = target: Neu5Ac(a2-3)Gal(b1-3)GlcNAc(b1-2)Man(a1-3)[GlcNAc(b1-4)][Neu5Ac(a2-3)Gal(b1-3)GlcNAc(b1-2)Man(a1-6)]Man(b1-4)GlcNAc(b1-4)GlcNAc
# How it was run: as §1
# [10] = target: Neu5Ac(a2-3)Gal(b1-3)GlcNAc(b1-2)Man(a1-3)[Neu5Ac(a2-3)Gal(b1-3)GlcNAc(b1-2)Man(a1-6)]Man(b1-4)GlcNAc(b1-4)GlcNAc
# How it was run: as §1
# [11] = target: Neu5Ac(a2-3)Gal(b1-3)GlcNAc(b1-3)Gal(b1-3)GlcNAc
# How it was run: as §1
# [12] = target: Neu5Ac(a2-3)Gal(b1-3)GlcNAc(b1-3)Gal(b1-4)GlcNAc
# How it was run: as §1
# [13] = target: Neu5Ac(a2-3)Gal(b1-3)GlcNAc(b1-3)GalNAc
# How it was run: as §1
# [14] = target: Neu5Ac(a2-3)Gal(b1-3)GlcNAc(b1-4)Gal(b1-4)Glc
# How it was run: as §1
# [15] = target: Neu5Ac(a2-3)Gal(b1-3)GlcNAc(b1-6)GalNAc
# How it was run: as §1
# [16] = target: Neu5Ac(a2-3)Gal(b1-3)GlcNAc6S
# How it was run: as §1
# [17] = target: Neu5Ac(a2-3)Gal(b1-3)[Fuc(a1-4)]GlcNAc
# How it was run: as §1
# [18] = target: Neu5Ac(a2-3)Gal(b1-3)[Fuc(a1-4)]GlcNAc(b1-3)Gal(b1-3)[Fuc(a1-4)]GlcNAc
# How it was run: as §1
# [19] = target: Neu5Ac(a2-3)Gal(b1-3)[Fuc(a1-4)]GlcNAc(b1-3)Gal(b1-4)[Fuc(a1-3)]GlcNAc
# How it was run: as §1
# [20] = target: Neu5Ac(a2-3)Gal(b1-3)[GlcNAc(b1-6)]GalNAc
# How it was run: as §1
# [21] = target: Neu5Ac(a2-3)Gal(b1-3)[Neu5Ac(a2-6)]GalNAc
# How it was run: as §1
# [22] = target: Neu5Ac(a2-3)Gal(b1-3)[Neu5Ac(a2-6)]GlcNAc(b1-3)[Fuc(a1-3)[Gal(b1-4)]GlcNAc(b1-6)]Gal(b1-4)Glc
# How it was run: as §1
# [23] = target: Neu5Ac(a2-3)Gal(b1-3)]Neu5Ac(a2-3)Gal(b1-4)]GlcNAc
# How it was run: as §1
# [24] = target: Neu5Ac(a2-3)Gal(b1-4)Glc
# How it was run: as §1
# [25] = target: Neu5Ac(a2-3)Gal(b1-4)GlcNAc
# How it was run: as §1
# [26] = target: Neu5Ac(a2-3)Gal(b1-4)GlcNAc(b1-2)Man
# How it was run: as §1
# [27] = target: Neu5Ac(a2-3)Gal(b1-4)GlcNAc(b1-2)Man(a1-3)[GlcNAc(b1-4)][Neu5Ac(a2-3)Gal(b1-4)GlcNAc(b1-2)Man(a1-6)]Man(b1-4)GlcNAc(b1-4)GlcNAc
# How it was run: as §1
# [28] = target: Neu5Ac(a2-3)Gal(b1-4)GlcNAc(b1-2)Man(a1-3)[Neu5Ac(a2-3)Gal(b1-4)GlcNAc(b1-2)Man(a1-6)]Man(b1-4)GlcNAc(b1-4)GlcNAc
# How it was run: as §1
# [29] = target: Neu5Ac(a2-3)Gal(b1-4)GlcNAc(b1-2)Man(a1-3)[Neu5Ac(a2-3)Gal(b1-4)GlcNAc(b1-2)Man(a1-6)]Man(b1-4)GlcNAc(b1-4)[Fuc(a1-6)]GlcNAc
# How it was run: as §1
# [30] = target: Neu5Ac(a2-3)Gal(b1-4)GlcNAc(b1-2)Man(a1-3)[Neu5Ac(a2-6)Gal(b1-4)GlcNAc(b1-2)Man(a1-6)]Man(b1-4)GlcNAc(b1-4)GlcNAc
# How it was run: as §1
# [31] = target: Neu5Ac(a2-3)Gal(b1-4)GlcNAc(b1-2)[Neu5Ac(a2-3)Gal(b1-4)GlcNAc(b1-4)]Man(a1-3)[GlcNAc(b1-4)][Neu5Ac(a2-3)Gal(b1-4)GlcNAc(b1-2)[Neu5Ac(a2-3)Gal(b1-4)GlcNAc(b1-6)]Man(a1-6)]Man(b1-4)GlcNAc(b1-4)GlcNAc
# How it was run: as §1
# [32] = target: Neu5Ac(a2-3)Gal(b1-4)GlcNAc(b1-2)[Neu5Ac(a2-3)Gal(b1-4)GlcNAc(b1-4)]Man(a1-3)[GlcNAc(b1-4)][Neu5Ac(a2-3)Gal(b1-4)GlcNAc(b1-4)Man(a1-6)]Man(b1-4)GlcNAc(b1-4)GlcNAc
# How it was run: as §1
# [33] = target: Neu5Ac(a2-3)Gal(b1-4)GlcNAc(b1-2)[Neu5Ac(a2-3)Gal(b1-4)GlcNAc(b1-6)]Man(a1-6)[Neu5Ac(a2-3)Gal(b1-4)GlcNAc(b1-2)Man(a1-3)]Man(b1-4)GlcNAc(b1-4)GlcNAc
# How it was run: as §1
# [34] = target: Neu5Ac(a2-3)Gal(b1-4)GlcNAc(b1-2)[Neu5Ac(a2-3)Gal(b1-4)GlcNAc(b1-6)]Man(a1-6)[Neu5Ac(a2-3)Gal(b1-4)GlcNAc(b1-2)Man(a1-3)][GlcNAc(b1-4)]Man(b1-4)GlcNAc(b1-4)GlcNAc
# How it was run: as §1
# [35] = target: Neu5Ac(a2-3)Gal(b1-4)GlcNAc(b1-3)Gal
# How it was run: as §1
# [36] = target: Neu5Ac(a2-3)Gal(b1-4)GlcNAc(b1-3)Gal(b1-3)GlcNAc
# How it was run: as §1
# [37] = target: Neu5Ac(a2-3)Gal(b1-4)GlcNAc(b1-3)Gal(b1-4)GlcNAc
# How it was run: as §1
binder,measurement,setting,value
B1,glycan array binding signal (z-score),[1],-0.117
same,glycan array binding signal (z-score),[2],-0.351
same,glycan array binding signal (z-score),[3],-0.306
same,glycan array binding signal (z-score),[4],-0.238
same,glycan array binding signal (z-score),[5],-0.168
same,glycan array binding signal (z-score),[6],-0.446
same,glycan array binding signal (z-score),[7],-0.122
same,glycan array binding signal (z-score),[8],-0.044
same,glycan array binding signal (z-score),[9],-0.381
same,glycan array binding signal (z-score),[10],0.283
same,glycan array binding signal (z-score),[11],-0.657
same,glycan array binding signal (z-score),[12],-0.559
same,glycan array binding signal (z-score),[13],-0.544
same,glycan array binding signal (z-score),[14],-0.292
same,glycan array binding signal (z-score),[15],0.067
same,glycan array binding signal (z-score),[16],-0.268
same,glycan array binding signal (z-score),[17],-0.108
same,glycan array binding signal (z-score),[18],0.233
same,glycan array binding signal (z-score),[19],0.654
same,glycan array binding signal (z-score),[20],-0.449
same,glycan array binding signal (z-score),[21],0.02
same,glycan array binding signal (z-score),[22],0.101
same,glycan array binding signal (z-score),[23],-0.613
same,glycan array binding signal (z-score),[24],0.069
same,glycan array binding signal (z-score),[25],-0.053
same,glycan array binding signal (z-score),[26],-0.113
same,glycan array binding signal (z-score),[27],-0.077
same,glycan array binding signal (z-score),[28],-0.171
same,glycan array binding signal (z-score),[29],-0.365
same,glycan array binding signal (z-score),[30],-0.438
same,glycan array binding signal (z-score),[31],-0.231
same,glycan array binding signal (z-score),[32],0.049
same,glycan array binding signal (z-score),[33],0.174
same,glycan array binding signal (z-score),[34],-0.505
same,glycan array binding signal (z-score),[35],-0.032
same,glycan array binding signal (z-score),[36],-0.055
same,glycan array binding signal (z-score),[37],-0.703
